Whole data set: some 33,000 sequences, median “E-score (-0.5 to 0.5)” near -0.035, cut for the highest 2% near 0.34. Some of the results follow.
Target: T1, Mot3 (UniProt P54785)
T1 sequence: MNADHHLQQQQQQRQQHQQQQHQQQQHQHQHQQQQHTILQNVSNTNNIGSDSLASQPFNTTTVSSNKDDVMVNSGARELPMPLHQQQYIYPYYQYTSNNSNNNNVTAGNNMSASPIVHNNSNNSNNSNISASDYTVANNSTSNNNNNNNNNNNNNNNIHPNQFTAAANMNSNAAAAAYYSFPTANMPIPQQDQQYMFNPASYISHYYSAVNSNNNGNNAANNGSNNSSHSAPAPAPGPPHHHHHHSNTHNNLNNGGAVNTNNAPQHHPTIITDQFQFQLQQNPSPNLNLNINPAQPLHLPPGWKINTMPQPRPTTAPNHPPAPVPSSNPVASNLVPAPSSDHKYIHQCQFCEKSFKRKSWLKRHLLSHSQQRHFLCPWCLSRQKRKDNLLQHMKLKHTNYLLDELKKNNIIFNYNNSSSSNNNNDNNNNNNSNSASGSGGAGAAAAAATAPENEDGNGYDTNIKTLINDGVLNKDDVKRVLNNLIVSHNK
Assay: PBM E-score (8-mer binding enrichment) (E-score (-0.5 to 0.5)); higher = stronger / more preferred TF binding; most listed sequences are background and not binding sites
Conditions: protein concentration: 200 nM; construct: GST-full length
Outline: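 For each ungapped eight-base word taken together with its reverse complement, the Universal PBM Analysis Suite assigned an E-score. Binding data came from GST-tagged yeast transcription factors, applied at about 100-200 nM, on universal all-10-mer Agilent arrays made double-stranded by primer extension. Fluorescent anti-GST marked bound protein, and scans were normalised with masliner.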

| Sequence | PBM E-score |
| --- | --- |
| CAGAATTC | -0.156 |
| AACCCACA | 0.0686 |
| CCCGATCA | -0.266 |
| AAGAAGAC | -0.00584 |
| CCCGACGC | -0.262 |
| CGCAGACC | -0.317 |
| ATCTTCTG | -0.0492 |
| AGATAGCC | -0.145 |
| CCGATAGC | -0.202 |
| AGGAGTAT | -0.025 |
| GGGATCAC | -0.239 |
| CGGCCCTC | -0.317 |
| AGTAACGG | -0.0844 |
| CGCCACAA | -0.0437 |
| ACTCCCCT | -0.3 |
| GATCCTAC | 0.046 |
| CAAAGTGC | -0.0314 |
| AAGGTACT | 0.364 |
| ACTATCAC | -0.0139 |
| GGGGCCGA | -0.299 |
| TAGATCCA | -0.152 |
| CTGTGGCA | -0.125 |
| CATAGTAA | 0.275 |
| CCTTTGAA | 0.00045 |
| ACGGGGGC | -0.202 |

| Sequence | PBM E-score |
| --- | --- |
| CGTGATTC | -0.294 |
| TCGCCACA | 0.017 |
| CCAACAGC | -0.0615 |
| GAGGCGGA | -0.339 |
| ATCTGGCG | -0.0356 |
| ACTCGTAA | 0.0814 |
| CCTGTTAG | 0.123 |
| CATATATC | -0.0379 |
| AAGTACCC | -0.0167 |
| AGGTGTAA | 0.26 |
| ATCTCTGG | -0.146 |
| CGCTGGTC | -0.275 |
| ATCGCGAT | -0.106 |
| TGGTGACA | -0.0574 |
| CCAGACAG | -0.104 |
| ACCCCAAG | -0.15 |
| ATCGGACA | -0.0499 |
| CGGAAGCA | 0.0397 |
| ATTGGCGG | -0.109 |
| CCCGGTGC | -0.264 |
| CCCTATAC | -0.173 |
| AAGATCTA | -0.0945 |
| AACGTCCA | 0.0806 |
| TCCGCAAA | -0.144 |
| GCGGCTGA | -0.28 |

| Sequence | PBM E-score |
| --- | --- |
| CGGATTAG | -0.104 |
| CGTGAATA | 0.0673 |
| GACCTTAC | -0.0449 |
| GGAGTCCC | -0.249 |
| CCTATACG | 0.0755 |
| TAGTTCAA | -0.122 |
| AGTGGTCG | -0.106 |
| TAGTGAGA | -0.0858 |
| AACTCACG | 0.101 |
| CCAACGGC | -0.262 |
| GTTATAGA | 0.203 |
| AAAAAATG | 0.276 |
| CGGCGGTA | -0.141 |
| GGGAAGGA | 0.0106 |
| ATGGAGCG | -0.165 |
| ATCTAACA | 0.0652 |
| CCCTTCCC | -0.116 |
| GCCTCCTA | -0.00587 |
| TCAATTCA | -0.115 |
| GGGCGAGA | -0.198 |
| AGCTATAT | 0.0605 |
| CGCTGAAA | 0.0848 |
| AGTCTCCC | -0.221 |
| AGCGGACG | -0.165 |
| CTCTTCGA | -0.144 |

| Sequence | PBM E-score |
| --- | --- |
| CCGCGAGG | -0.238 |
| ATCCGAAA | -0.134 |
| ACCAAGAC | -0.0753 |
| GTACGGTA | 0.0144 |
| GGCAGGAA | 0.419 |
| CATATGAG | -0.212 |
| GTAGGGAC | -0.157 |
| ACTGGTGC | -0.0536 |
| GAGGCGGC | -0.207 |
| TAGCCTAA | 0.00109 |
| AGATGTCC | -0.271 |
| AAAACCGG | -0.13 |
| AGTGCCAC | -0.35 |
| AAGCTGGG | -0.201 |
| GCGTGCAA | -0.0164 |
| CAGGAAGC | -0.0266 |
| ACTAAATG | -0.0144 |
| GAGTAAAA | 0.13 |
| AAAAAACC | -0.0111 |
| AGAGCCAA | 0.0137 |
| TGGGACCA | -0.201 |
| GCTGGACA | -0.248 |
| AAGTGCCG | -0.262 |
| CTCCATAA | 0.00206 |
| CTAAGACC | -0.0828 |

| Sequence | PBM E-score |
| --- | --- |
| CTGGCAAA | -0.0815 |
| ATCTTCGA | 0.00733 |
| AATACCCG | 0.101 |
| ACTCCAAT | -0.0757 |
| GCGTGAAA | 0.153 |
| CTGAACTC | -0.12 |
| TCCTCCAA | -0.0985 |
| ATGACTGC | -0.153 |
| GAGTGTGC | 0.0775 |
| ACTATGTA | 0.36 |
| ATGACTTG | -0.0353 |
| GTGCGATA | -0.123 |
| GCCCACGA | -0.208 |
| AGCGAGTC | -0.235 |
| AGTGCAAG | 0.0142 |
| AACCGAGC | -0.139 |
| ATGGCCTC | -0.229 |
| CCTAGGGA | -0.256 |
| CCCCAAGC | -0.18 |
| CGGCCGAG | -0.165 |
| TCAATAGA | -0.118 |
| ACAACGCC | 0.105 |
| GAGAATGC | -0.0679 |
| TACATAAA | 0.28 |
| CACAATTC | 0.0732 |

| Sequence | PBM E-score |
| --- | --- |
| GAGCGCCC | -0.292 |
| GCTATAAA | 0.0828 |
| CTTAGCAC | -0.0517 |
| GTTGTTAA | 0.275 |
| CGTAAGAG | 0.158 |
| GCTAAGAA | -0.122 |
| ACCATACA | -0.0574 |
| CCTGAATC | 0.142 |
| TATGGAGA | -0.267 |
| ACGTACCG | 0.00315 |
| CGTTCGTA | 0.144 |
| GAATGATC | -0.263 |
| AGGTACCT | 0.434 |
| GGTTTCCA | -0.188 |
| CGTTAGCA | 0.0689 |
| AGCATCGG | -0.265 |
| AGCCGGCT | -0.321 |
| AGGATCTG | -0.111 |
| CTTAGCCC | -0.079 |
| AGTTAGTA | 0.137 |
| ACTGCTAC | -0.00805 |
| GACGAAAA | 0.131 |
| CGGGCAAA | 0.0704 |
| AGGCTTTA | 0.0362 |
| ATCCTTAC | 0.115 |

| Sequence | PBM E-score |
| --- | --- |
| ATAGATGA | 0.0867 |
| CAGAGCCA | -0.192 |
| ACACGGAA | 0.26 |
| CTCGACAA | -0.0271 |
| GTTTTGGA | 0.0391 |
| AACCTACG | 0.244 |
| CAATATGG | -0.152 |
| ATCGATAA | -0.12 |
| ACCCGTGG | -0.276 |
| CAGCTTGC | 0.0301 |
| GCGAACGC | 0.019 |
| TAAGTTCA | 0.0189 |
| CACTGTTC | -0.0593 |
| CTAGCAGC | -0.257 |
| GCAGCTAA | -0.0942 |
| GAAATTAC | 0.249 |
| CGCAGTAA | 0.0257 |
| ATCTGCAG | -0.00462 |
| GCATCGTA | -0.112 |
| AGTTCGGG | -0.0145 |
| GCAGTCTA | -0.254 |
| AAAAGTAC | 0.117 |

Source: the supplement of paper PMC3334620
